Here are results for 43 molecules from paper PMC4336329 (PLoS ONE, 2015).

Molecules are shown by their SMILES. About 2,200 (0.71%) of roughly 310,000 compounds showed an effect of 50% or more. Effects have a minus sign here. The list shows a part of the results.

The target in the assay is human ether-à-go-go-related gene (hERG) potassium channel (human, UniProt Q12809). Description: primary screen, population patch clamp on CHO cells stably expressing hERG.
human ether-à-go-go-related gene (hERG) potassium channel, sequence (Q12809 whole entry, looked up): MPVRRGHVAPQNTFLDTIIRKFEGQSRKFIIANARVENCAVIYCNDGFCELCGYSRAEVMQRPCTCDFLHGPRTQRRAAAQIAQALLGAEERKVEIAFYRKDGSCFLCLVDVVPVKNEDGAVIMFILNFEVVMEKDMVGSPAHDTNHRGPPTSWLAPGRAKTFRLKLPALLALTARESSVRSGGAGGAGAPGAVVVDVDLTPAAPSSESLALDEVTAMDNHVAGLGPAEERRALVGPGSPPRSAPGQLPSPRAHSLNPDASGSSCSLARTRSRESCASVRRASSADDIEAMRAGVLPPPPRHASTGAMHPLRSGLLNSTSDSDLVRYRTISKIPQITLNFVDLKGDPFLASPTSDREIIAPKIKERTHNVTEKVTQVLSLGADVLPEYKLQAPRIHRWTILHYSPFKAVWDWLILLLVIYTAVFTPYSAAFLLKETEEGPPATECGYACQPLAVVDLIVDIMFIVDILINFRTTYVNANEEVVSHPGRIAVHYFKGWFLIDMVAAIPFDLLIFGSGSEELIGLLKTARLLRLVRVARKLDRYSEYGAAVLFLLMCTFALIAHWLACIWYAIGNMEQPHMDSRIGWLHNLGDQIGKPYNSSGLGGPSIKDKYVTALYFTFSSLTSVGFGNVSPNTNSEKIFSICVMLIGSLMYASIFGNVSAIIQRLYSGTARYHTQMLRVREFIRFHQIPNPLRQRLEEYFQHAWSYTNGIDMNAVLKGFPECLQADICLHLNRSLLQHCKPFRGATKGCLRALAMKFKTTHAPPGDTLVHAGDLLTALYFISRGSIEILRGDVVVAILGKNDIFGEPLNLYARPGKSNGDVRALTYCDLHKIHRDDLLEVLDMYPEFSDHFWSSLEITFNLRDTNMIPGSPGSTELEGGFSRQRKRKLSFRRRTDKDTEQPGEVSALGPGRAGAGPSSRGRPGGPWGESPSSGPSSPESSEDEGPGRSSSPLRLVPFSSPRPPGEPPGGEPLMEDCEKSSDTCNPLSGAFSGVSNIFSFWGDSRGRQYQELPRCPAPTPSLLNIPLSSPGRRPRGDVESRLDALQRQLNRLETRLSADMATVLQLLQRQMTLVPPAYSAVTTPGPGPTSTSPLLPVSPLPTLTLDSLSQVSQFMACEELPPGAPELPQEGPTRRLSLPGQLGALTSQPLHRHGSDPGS
For `Br.COc1cccc(C(=O)Cn2c(NCCO)nc3ccccc32)c1`, the “hERG current change (%, negative = inhibition) at 1uM” value stood at 17.3%.
Regarding `CC1(C)CC(=O)/C(=C(/O)Cc2ccccc2)C(=NCCc2ccccc2)C1`, the “hERG current change (%, negative = inhibition) at 1uM” value is given as -0.981%.
`CCN1C(=O)C(CC(=O)Nc2c(C)cccc2C)Nc2cc(S(=O)(=O)N(C)C)ccc21` (stereo not shown): the “hERG current change (%, negative = inhibition) at 1uM” value amounted to 7.5%.
For `CCCCNC(=O)C1CCN(C/C(C)=C/c2ccccc2)CC1.O=C(O)C(=O)O` the value was -33.9%; for `Cc1cccc(NS(=O)(=O)c2ccc(C(=O)N3CCN(c4ccccc4O)CC3)cc2)c1C`, 14%.
For `COc1ccccc1CNC(=O)Cn1cccc1C(=O)c1ccccc1C` the value was -1%; for `Cc1cccc(C)c1NCc1nnc(SCC(=O)Nc2nc(-c3ccccc3)cs2)n1-c1ccccc1`, -5.85%; for `CCOC(=O)/C=C/C(=O)Nc1nccs1`, 13.4%.
For `COCCOC(=O)c1c(C)nc(SCC(=O)Nc2cccc3ccccc23)c(C#N)c1-c1ccco1` the value was 13.7%; for `CC1CC(C)CN(C(=O)CCNS(=O)(=O)c2cccs2)C1` (stereo not shown), 1.81%.
For `c1cncc(-c2nc(NCC3CCCO3)c3ccccc3n2)c1` (stereo not shown), the “hERG current change (%, negative = inhibition) at 1uM” value amounted to 13.4%.
To `CCc1cc2c(=O)n(CC)c(SC(C)C(=O)Nc3c(C)n(C)n(-c4ccccc4)c3=O)nc2s1` (stereo not shown) belongs -7.94%; to `COc1ccc(-c2cc3nc4ccccc4n3c(N)c2C#N)cc1`, 5.05%; to `CC(OC(=O)c1cc(=O)c2ccccc2o1)C(=O)Nc1ccc(N(C)C)cc1` (stereo not shown), 7.64%.
For `CCOC(=O)c1sc(NC(=O)c2ccc(C)s2)cc1C` the value was 6.31%; for `Cc1ccc(CS(=O)Cc2ccc(C(=O)NCc3ccccc3Cl)o2)cc1` (stereo not shown), 3.78%.
Consider `CCc1nnc(NC(=O)CCC(=O)NC2CCCCC2)s1`, for which the “hERG current change (%, negative = inhibition) at 1uM” value was determined as 10.9%.
On to `CCc1cc(=O)oc2cc(C)cc(OCC(=O)NCCc3c[nH]c4ccccc34)c12`, for which the “hERG current change (%, negative = inhibition) at 1uM” value worked out at 10.8%.
As to `CC1(C)CC(=O)C(C=NCCCO)=C(O)C1`, the “hERG current change (%, negative = inhibition) at 1uM” value was determined as 8.63%.
For `C/C(=N\NC(=O)c1ccc(N/N=C(\C)c2ccc(O)cc2)cc1)c1ccc(O)cc1.O=S(=O)(O)O` the value was -4.96%.
For `CC(C)(C)NC(=O)C(c1ccccc1F)N(Cc1ccco1)C(=O)c1csnn1` (stereo not shown), the “hERG current change (%, negative = inhibition) at 1uM” value is 9.25%.
For `CCOc1cc(/C=C(/C#N)c2nc3ccccc3[nH]2)ccc1OCc1ccc(C(=O)O)o1` the value was 14%; for `O=C(C1CCCN(Cc2ccccc2C(F)(F)F)C1)N1CCCCC1.O=C(O)C(=O)O` (stereo not shown), 7.34%.
For the molecule `CCn1c(O)c(C=Nc2ccc(N3CCOCC3)cc2)c(=O)n(CC)c1=S`, the “hERG current change (%, negative = inhibition) at 1uM” value is 3.79%.
For `Cc1cc(C(=O)N/N=C\C(Br)=C\c2ccccc2)c(C)o1`, the “hERG current change (%, negative = inhibition) at 1uM” value worked out at 9.64%.
In the case of `Cn1c(CNC(=O)c2ccco2)nnc1SCC(=O)Nc1ccc(Cl)cc1`, the “hERG current change (%, negative = inhibition) at 1uM” value is -5.72%.
To `COc1ccccc1-n1c(-c2ccco2)n[nH]c1=S` belongs 11.1%; to `CCOC(=O)N1CCN(C(=O)CSc2nnc(Cc3ccccc3)o2)CC1`, 2.57%.
Take `CC1=C(c2ccc(Cl)cc2)[N+](=O)C(C)(C)N1[O-]`: the “hERG current change (%, negative = inhibition) at 1uM” value came to 10.3%.
Consider `Cc1nnc(NC(=O)CSc2ncnc3scc(-c4ccccc4)c23)s1`, for which the “hERG current change (%, negative = inhibition) at 1uM” value worked out at 18.6%.
For `CC(C)(C)NC(=O)CN1CCC(NC(=O)C23CC4CC(CC(C4)C2)C3)CC1`, the “hERG current change (%, negative = inhibition) at 1uM” value amounted to 17.8%.
As to `Cc1cc(S(=O)(=O)Nc2ccc3ccccc3c2)c(C)s1`, the “hERG current change (%, negative = inhibition) at 1uM” value was determined as 0.0845%.
With `Cn1c(SCC(=O)c2ccccc2)nnc1-c1ccccn1`, the “hERG current change (%, negative = inhibition) at 1uM” value came out at 5.2%.
For `CCn1c(=O)c2c3c(sc2n2c(=S)[nH]nc12)CCC3` the value was 19.2%; for `Cc1nnc(NC(=O)c2ccc3c(c2)C(=O)N(CCC(C)C)C3=O)s1`, 2.18%.
For the molecule `O=C(CCNS(=O)(=O)c1cccc2nsnc12)NCc1ccc(F)cc1`, the “hERG current change (%, negative = inhibition) at 1uM” value is given as -0.149%.
To `CC(=O)Nc1ccc(Nc2ccc3c4c(cc(=O)n3C)-c3ccccc3C(=O)c24)cc1` belongs 9.4%; to `O=c1c2ccccc2nc(CNCC2CCCO2)n1-c1ccc(F)cc1` (stereo not shown), 14.5%; to `C/C(CC1(O)C(=O)N(Cc2ccccc2)c2ccccc21)=N\O` (stereo not shown), 4.21%.
To `Cc1cc(C)n(-c2ccc3cccc(NS(C)(=O)=O)c3n2)n1` belongs 20.5%.
To `Cn1cc(C(=O)N/N=C/C2=C(N3CCOCC3)C(=C\c3ccccc3)/CC2)ccc1=O` belongs 6.35%.
`CCC(C)c1ccc(N(C(=O)c2ccco2)C(C(=O)NC2CCCC2)c2cccnc2)cc1` (stereo not shown): the “hERG current change (%, negative = inhibition) at 1uM” value worked out at 8.33%.
To `O=C(CCn1nnc(-c2cccs2)n1)N1CCc2ccccc2C1` belongs 2.56%.
